# Data from PMC12753576.
# By UniProt entry, the sequences of proteins in these tests, tags left out. Where a name states a change or a piece, a line headed by the entry shows the natural chain unless it says otherwise. Chains listed by the source or under a name are the forms on record and can include a tag or linker. Residues count along the entry.
# wild-type SERPINA1 (tagged plasmid construct) (P01009, residues 25-418): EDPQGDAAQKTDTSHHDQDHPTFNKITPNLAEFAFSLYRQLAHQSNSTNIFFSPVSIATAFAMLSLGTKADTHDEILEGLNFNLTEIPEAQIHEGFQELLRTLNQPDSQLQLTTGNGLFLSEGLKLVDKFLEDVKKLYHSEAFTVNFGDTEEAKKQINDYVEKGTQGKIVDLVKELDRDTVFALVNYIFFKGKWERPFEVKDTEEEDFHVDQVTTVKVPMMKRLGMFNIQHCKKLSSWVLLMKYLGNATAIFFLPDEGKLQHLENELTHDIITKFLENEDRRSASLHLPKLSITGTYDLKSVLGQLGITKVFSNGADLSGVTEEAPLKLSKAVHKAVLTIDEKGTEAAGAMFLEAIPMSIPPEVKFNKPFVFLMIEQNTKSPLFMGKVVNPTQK
# SERPINA1 Δ320–392 (P01009, form named): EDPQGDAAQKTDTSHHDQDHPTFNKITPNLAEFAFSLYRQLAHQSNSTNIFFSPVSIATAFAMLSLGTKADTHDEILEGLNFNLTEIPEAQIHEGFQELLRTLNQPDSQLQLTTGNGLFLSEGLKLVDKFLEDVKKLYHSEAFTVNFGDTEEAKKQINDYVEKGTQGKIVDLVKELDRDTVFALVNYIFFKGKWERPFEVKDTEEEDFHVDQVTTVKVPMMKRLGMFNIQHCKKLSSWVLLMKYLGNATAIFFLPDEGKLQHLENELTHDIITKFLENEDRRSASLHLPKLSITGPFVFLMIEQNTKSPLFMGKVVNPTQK
# SERPINA1 Δ60–120 (P01009, form named): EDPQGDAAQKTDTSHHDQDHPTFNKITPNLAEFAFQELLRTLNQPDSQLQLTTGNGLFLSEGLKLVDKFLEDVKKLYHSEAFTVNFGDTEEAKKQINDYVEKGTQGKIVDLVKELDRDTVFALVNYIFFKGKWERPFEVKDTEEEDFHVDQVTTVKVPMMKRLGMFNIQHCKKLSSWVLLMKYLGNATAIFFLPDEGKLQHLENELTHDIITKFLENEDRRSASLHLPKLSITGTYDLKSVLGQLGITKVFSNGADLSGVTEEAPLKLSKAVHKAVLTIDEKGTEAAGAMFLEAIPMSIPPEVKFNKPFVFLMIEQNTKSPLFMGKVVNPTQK
# UniProt P05106, residues 27-788: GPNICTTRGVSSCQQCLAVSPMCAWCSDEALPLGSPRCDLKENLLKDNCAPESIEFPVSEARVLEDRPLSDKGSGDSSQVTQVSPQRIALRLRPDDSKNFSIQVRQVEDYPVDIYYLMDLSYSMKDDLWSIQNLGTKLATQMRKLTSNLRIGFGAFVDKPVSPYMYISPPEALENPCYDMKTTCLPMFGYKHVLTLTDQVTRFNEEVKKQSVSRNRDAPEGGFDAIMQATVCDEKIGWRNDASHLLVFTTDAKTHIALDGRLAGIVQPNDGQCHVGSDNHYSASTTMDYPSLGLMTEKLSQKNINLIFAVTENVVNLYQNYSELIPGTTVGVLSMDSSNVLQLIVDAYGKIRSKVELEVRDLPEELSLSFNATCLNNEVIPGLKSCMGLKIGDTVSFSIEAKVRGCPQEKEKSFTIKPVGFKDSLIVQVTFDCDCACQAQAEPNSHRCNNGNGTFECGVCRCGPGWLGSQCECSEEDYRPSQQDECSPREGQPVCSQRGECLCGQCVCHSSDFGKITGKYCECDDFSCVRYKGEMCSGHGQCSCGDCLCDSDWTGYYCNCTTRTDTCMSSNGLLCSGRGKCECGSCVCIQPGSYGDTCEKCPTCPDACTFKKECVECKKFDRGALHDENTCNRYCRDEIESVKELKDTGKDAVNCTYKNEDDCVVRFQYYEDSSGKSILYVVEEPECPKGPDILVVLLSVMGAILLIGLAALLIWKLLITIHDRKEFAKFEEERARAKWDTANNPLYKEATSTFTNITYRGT
# No constants are given. Whether binding was seen depends on the method and setting. For some assays here: Binding seen in cells or lysates may run through a third protein. Some entries that bind do so weakly or less than the wild type.
# Key:
# GST-SERPINA1 (human) = GST-SERPINA1 (human) (UniProt P01009); test: pull-down; GST pull-down on glutathione resin; GST-SERPINA1 and FLAG-ITGB3 purified from E. coli; GST NC as control; Western blot; both purified
# [1] = biological target: ITGB3-3×FLAG (wild type) (human) (UniProt P05106); test: co-IP; HCC cell lines co-transfected with wild-type or mutant SERPINA1 and ITGB3 plasmids for 48 h; immunoprecipitation with HA- or FLAG-tag antibodies
# [2] = biological target: ITGB3-3×FLAG (wild type) (human) (UniProt P05106); test: co-IP; co-IP of ITGB3 and ITCH in HCC cells with SERPINA1 overexpression (Fig. 5d)
binding [1],Substance,further results
,FLAG-ITGB3 (recombinant ITGB3) (from UniProt P05106 27-788) (receptor),binding (GST-SERPINA1 (human)): binds
no binding,SERPINA1 Δ320–392 (from UniProt P01009 25-418),
,"SERPINA1, overexpressed (Lv-OE-SERPINA1) (from UniProt P01009 25-418)",binding [2]: binds
binds,SERPINA1 Δ60–120 (from UniProt P01009 25-418),
binds,wild-type SERPINA1 (tagged plasmid construct) (from UniProt P01009 25-418),
